# According to PubChem BioAssay AID686979 (National Center for Advancing Translational Sciences (NCATS), 2013):
# Values joined by “and” are separate entries in the source; they are usually repeats but may differ in a detail not shown here. Equal values may be shown once. Hit rate of the full screen: of about 420,000 compounds, about 50,000 (12%) were called active. The shares of active, inactive and inconclusive entries below differ from those in the screen. The call rests on the fitted dose curve; in most records, active means well fitted inhibition curve with a large enough effect; inconclusive means small, poorly fitted or top-dose-only effect; inactive means flat fitted curve, though single readings scatter. Potencies of inconclusive entries are doubtful fits and often do not repeat.
# Test: qHTS for Inhibitors of human tyrosyl-DNA phosphodiesterase 1 (TDP1): qHTS in cells in presence of CPT; further: nearly all actives have a fitted effect of over 55% in size
# Conditions: chicken DT40 Tdp1-/-;hTDP1 cells + 20 nM CPT, ATP luminescence, 48 h; activity change, negative = growth inhibition: at 46.2 µM (top of the series) unless noted
# How it was run: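 Chicken DT40 Tdp1-/- cells stably complemented with human TDP1 were seeded at 400 cells/well in medium containing 20 nM camptothecin, exposed to pin-transferred compounds, and grown at 37 °C for at least 48 hr. Viability was read as ATP luminescence.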
# On the % scale 0 is the no-effect control and ±100 the full control effect; potency means the concentration at half of the fitted maximal effect; tags describe the fitted curve by direction and shape.
Compound,"activity change, negative = growth inhibition",Potency
Cc1c(NC(=O)CN2C(=O)c3ccccc3S2(=O)=O)c(=O)n(-c2ccccc2)n1C,inactive: -21.6%,
CC(C)(C)Cc1c(-c2ccc(Cl)cc2)nc2ccc(Cl)cn12,,"inconclusive: 29.1 µM [inhibitor, single point]"
COc1ccc(/C=C(\C#N)c2nc3ccccc3n2C)c(OC)c1,,"inconclusive: 29.1 µM [inhibitor, single point]"
CC1CCc2cc(F)ccc2N1C(=O)CSc1nnc2c(n1)[nH]c1ccccc12 (stereo not drawn),,"inconclusive: 18.4 µM [inhibitor, single point]"
CCn1c(N2CCN(S(=O)(=O)c3ccccc3)CC2)nc2ccccc21,,"inconclusive: 16.4 µM [inhibitor, single point]"
CCc1ccc(C2=CSC3=NCCN23)cc1,inactive: -3.48%,
O=S(=O)(c1ccccc1)n1ccc(-c2cnc(-c3ccccc3)s2)n1,,"inconclusive: 20.6 µM [inhibitor, single point]"
CCC(C)c1ccc(NC(=S)Nc2ccc(OC)cc2)cc1 (stereo not drawn),,active: 23.1 µM
CC1=C(C(=O)N2CCCCCC2)CC(CC(=O)NCCc2ccccn2)C(=O)N1CCCN1CCCC1=O (stereo not drawn),,"inconclusive: 37.2 µM [inhibitor, single point]"
CCOCCCN(Cc1ccco1)C(=O)c1cc2c(=O)[nH]c3ccc(C)cc3c2s1,,active: 23.1 µM
N#Cc1ccc(N2Cc3ccccc3C2=NC(=O)c2cccnc2Cl)cc1,,"inconclusive: 0.651 µM [inhibitor, single point]"
CCOC(=O)N1CCN(C(=O)CNC(=O)c2nn(-c3ccc(OC)cc3)c(=O)c3ccccc23)CC1,,"inconclusive: 18.4 µM [inhibitor, single point]"
CC(=O)Nc1ccc(N2CC(C)(C)C2=O)cc1,inactive: 2.04%,
CCc1ccc2c(c1)-c1ccccc1S(=O)(=O)N2CC(=O)N1CCCCC1,,"inconclusive: 29.1 µM [inhibitor, single point]"
COc1ccc(-c2cn3c(n2)sc2cc(C(=O)NCCc4ccc(OC)cc4OC)ccc23)cc1,,active: 7.31 µM
CCOC(=O)CC1(C)NC(=O)c2c(C)sc(C(=O)OCC)c2N1 (stereo not drawn),,"inconclusive: 20.6 µM [inhibitor, partial curve]"
CCCn1ncc(/C=N/O)c1C,,"inconclusive: 16.4 µM [inhibitor, partial curve]"
O=C(NCC(=O)N1CCN(c2ccccn2)CC1)c1ccc(Br)o1,inactive: -22%,
COc1ccc(NC(=O)C#Cc2ccccc2)cc1OC,,active: 6.51 µM
O=C(Nc1ccccc1)NC(Cc1ccc(O)cc1)C(=O)O (stereo not drawn),inactive: -4.51%,
CC(C)(C)c1ccc(-n2ncc3c2CCCC3NC(=O)C2(C(N)=O)CC2)cc1 (stereo not drawn),,active: 5.8 µM
COc1cccc(NC(=O)c2cnc(SCC(=O)N3CCOCC3)n(C)c2=O)c1,,active: 14.6 µM
O=C(CSc1ccc2c(c1)OCCO2)Nc1ccc2c(c1)OCO2,,"inconclusive: 23.1 µM [inhibitor, single point]"
C[C@H](CO)N1C[C@H](C)[C@@H](CN(C)S(=O)(=O)c2ccccc2)Oc2c(cccc2N(C)C)C1=O,,"inconclusive: 29.1 µM [inhibitor, single point]"
CNC(=S)N/N=C/c1cn(CCOc2cccc(OC)c2)c2ccccc12,,active: 8.2 µM

Compound,"activity change, negative = growth inhibition",Potency
CCCS(=O)(=O)NCc1c(C)ncc2c1CCN(C(=O)c1c(F)ccc(F)c1F)C2,inactive: 3.58% [at 9.04 µM],
CCCCOC(=O)c1ccc(NC(=O)C(=O)CC(=O)c2ccc(OC)cc2)cc1,,active: 16.4 µM
Cc1ccc(Cl)cc1N1CCN(C(=O)CN2C(=O)CSc3c2c(C)nn3-c2ccccc2)CC1,,"inconclusive: 29.1 µM [inhibitor, single point]"
COc1ccc(NC(=O)C(=O)N/N=C/c2cc(C)n(-c3cccc(Cl)c3Cl)c2C)c(OC)c1,,"inconclusive: 11.6 µM [inhibitor, partial curve]"
NC(=S)NN=C(c1ccc(Br)cc1)C1CC1,,"inconclusive: 20.6 µM [inhibitor, single point]"
O=C(CSc1nnc(CNC(=O)c2c(F)cccc2Cl)o1)NCc1ccc(F)cc1,,"inconclusive: 32.6 µM [inhibitor, single point]"
CCOC(=O)c1c(-c2ccc(OC)cc2)oc2ccc(OCC(N)=O)cc12,,"inconclusive: 23.1 µM [inhibitor, single point]"
Cc1cc(N/N=C/c2ccc(O)c(C)c2O)nc(-c2ccccc2O)n1,,active: 13 µM
CCc1ccc(CNC(=O)c2c(C)oc3ncn(CC(C)C)c(=O)c23)cc1,,"inconclusive: 29.1 µM [inhibitor, single point]"
Nn1c(SCc2cc([N+](=O)[O-])cc3c2OCOC3)nnc1-c1cccnc1,inactive: 1.09%,
Cc1cc(=O)oc2cc(OCC(=O)OCC(=O)Nc3ccc(C(N)=O)cc3)ccc12,,"inconclusive: 6.51 µM [inhibitor, single point]"
O=C(NCCCc1nc2ccccc2n1Cc1ccc(Cl)cc1Cl)c1ccco1,,active: 23.1 µM
COc1ccc(N2C(=O)CC(Sc3ncn[nH]3)C2=O)c(OC)c1 (stereo not drawn),,active: 2.91 µM
CN(C/C=C/c1ccccc1)Cc1cccc2ccccc12,,"inconclusive: 21.1 µM [inhibitor, single point] and inconclusive: 16.4 µM [inhibitor, single point]"
CCOC(=O)C1CCN(C(=O)Nc2ccc(OC(F)(F)F)cc2)CC1,inactive: -19.4%,
Cc1ccc(CNC(=O)c2cc(-c3ccccc3C)n(CC3CC(c4cccc([N+](=O)[O-])c4)=NO3)n2)cc1 (stereo not drawn),,"inconclusive: 11.6 µM [inhibitor, partial curve, poor fit]"
O=C(C1CCCN(c2ncnc3c2nc2n3CCCCC2)C1)N1CCN(c2ccccc2)CC1 (stereo not drawn),,"inconclusive: 5.17 µM [inhibitor, single point]"
O=Cc1c(NCCCN2CCCC2=O)c2ccccc2[nH]c1=O,inactive: 1.3%,
O=C(CCl)N(c1ccccc1)C1CCCCC1,,active: 2.59 µM
CCCSCCCNC(=O)Cn1cc2c(n1)CCCCC2,,"inconclusive: 14.6 µM [inhibitor, partial curve]"
COc1ccc(CNC(=O)CCCn2c(=O)c3cccn3c3cccnc32)cc1,,"inconclusive: 32.6 µM [inhibitor, single point]"
CCCC(=O)Nc1nnc(SCC(=O)NCc2ccc3c(c2)OCO3)s1,inactive: 4.52%,
Cc1cc(=O)[nH]c2ccc(Cl)cc12,inactive: 0.0005%,
CCCCCCn1cc(CN2CC(N3CCN(CCN(C)C)CC3)CS2(=O)=O)nn1 (stereo not drawn),inactive: 2.45%,
CC(C)c1ccc(OCC(O)CN2CCN(c3ccc(F)cc3)CC2)cc1 (stereo not drawn),,"inconclusive: 29.1 µM [inhibitor, single point]"

Compound,"activity change, negative = growth inhibition",Potency
Cc1[nH]c2ccccc2c1-c1csc(NC(=O)CN2CCOCC2)n1,,"inconclusive: 29.1 µM [inhibitor, single point]"
COc1ccc(NS(=O)(=O)c2cccc(C(=O)NNC(=O)c3cccc(NC(C)=O)c3)c2)cc1,inactive: 4.87%,
Cc1c(C(C)CCCO)oc(=O)c2c1Oc1c(C)c(C(C)C[C@H](C)O)oc(=O)c1C2 (stereo partly drawn),,"inconclusive: 18.4 µM [inhibitor, single point]"
Cn1cccc1C(=O)N1CCC2(CC1)CCN(c1ccncc1)CC2,,"inconclusive: 29.1 µM [inhibitor, single point]"
COc1ccccc1CN1CCC(CNC(=O)c2cnn(-c3ccc(Cl)cc3)c2C2CCN(C(=O)OC(C)(C)C)CC2)CC1,,active: 3.66 µM
CCCn1c(C(O)c2ccc(C)cc2)nc2ccccc21 (stereo not drawn),,"inconclusive: 23.1 µM [inhibitor, single point]"
Cc1ccccc1OCC(=O)NCC(=O)OCc1ccc(Br)cc1,inconclusive: -32.4% [inhibitor],
CCCc1c(C(=O)N/N=C/c2sccc2C)nnn1-c1nonc1N,inactive: 8.42%,
COC(=O)c1oc2ccccc2c1NC(=O)CN1CCCC1,inactive: -0.274%,
CCc1ccc(S(=O)(=O)c2c(C(=O)c3ccccc3)cnc3ccc(CC)cc23)cc1,,active: 14.6 µM
COc1ccccc1NC(=O)C(=O)NCCC1CCCCN1S(=O)(=O)c1cccs1 (stereo not drawn),,active: 29.1 µM
CCOCCCNC(=O)c1c(NC(=O)Cc2coc3ccc(C)cc23)sc2c1CCC2,,"inconclusive: 29.1 µM [inhibitor, single point]"
O=C(COC(=O)Cn1[nH]c(=O)c2ccccc2c1=O)NNC(=O)c1ccccc1,inactive: -9.69%,
O=S(=O)(c1cccc(F)c1)N1CCC(Oc2ccc(-n3cnnn3)cc2)CC1,,active: 16.4 µM
c1ccc(Cc2nnc3sc(-c4cccnc4)nn23)cc1,,"inconclusive: 8.2 µM [inhibitor, partial curve]"
O=C1C=C(N2CCOCC2)c2cccc3cccc1c23,inactive: -26.6%,
Cc1ccccc1NC(=O)c1ccc(Cl)c(S(=O)(=O)N2CCCCCC2)c1,,"inconclusive: 5.8 µM [inhibitor, single point]"
CSc1ccc(/C=C(/Sc2nnc(-c3ccccc3)o2)C(=O)O)cc1,inactive: 6.92%,
COc1ccc2[nH]cc(CCNC(=O)CCC3CCCCC3)c2c1,inactive: -21.3%,
Cc1ccc(Cn2ccc(NC(=O)c3nn(C)cc3[N+](=O)[O-])n2)cc1,inactive: 23%,
Cc1ccc(N=C2NC(=O)/C(=C/c3cccn3C)S2)cc1C,,active: 20.6 µM
CNC(=O)c1[nH]cnc1C(=O)Nc1cccc(Cl)c1,,"inconclusive: 25.9 µM [inhibitor, single point]"
Cc1ccc(S(=O)(=O)N2CCOCC2)cc1NC(=O)COC(=O)CCc1c[nH]c2ccccc12,,"inconclusive: 20.6 µM [inhibitor, partial curve, poor fit]"
